# The whole screen tested about 45,000 compounds, of which about 200 (0.44%) were called active. Not shown: some 7% with an inconclusive outcome. Calls come from the whole dose curve; as a rule, active = well fitted activation curve with a large enough effect; inconclusive = small, poorly fitted or top-dose-only effect; inactive = no such curve, though single readings can be large or run the other way. The list shows a part of the results.
# Experiment: qHTS of TDP-43 Inhibitors: NCGC Sytravon Library Screen; note: nearly all actives have a fitted effect of over 55% in size; for growth rescue (activation): 0% is about no effect
# Settings: yeast TDP-43 toxicity rescue, BacTiter-Glo growth, 24 h; series mostly up to 46.1 µM; growth rescue (activation): at the top concentration
# Summary of the method: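 TDP-43-expressing yeast, pregrown in raffinose, seeded at OD600 0.02 in galactose medium with compound for 24 hr at 30 deg C. Growth read by BacTiter-Glo luminescence, so rescue of toxicity appears as activation.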
# Potency is the fitted concentration of half-maximal effect.
SMILES,growth rescue (activation),Potency
Nc1nc(SCC(=O)Nc2ccc([N+](=O)[O-])cc2Br)n[nH]1,inactive: 22.2%,
Cc1c(Br)c([N+](=O)[O-])nn1CC(=O)Nc1ccccn1,inactive: 6.37%,
O=C(NCCc1ccccc1)C1CCCN(S(=O)(=O)c2cccc3nsnc23)C1 (configuration not stated),inactive: 18.5%,
O=C(O)C(Cc1ccccc1)N=C(NS(=O)(=O)c1ccccc1)c1ccccc1 (configuration not stated),inactive: 2.87%,
COCC1CCN(C(=O)CCc2nnc(C3(c4ccc(Cl)cc4)CCC3)o2)CC1,inactive: -12.8%,
O=C1Nc2ccc(Br)cc2/C1=N\N=C\C1=C(N2CCOCC2)C(=C/c2ccccc2)/CC1,inactive: 1.24%,
CCOC(=O)C1=C(c2ccccc2)NC(=O)NC1c1ccc(OC)cc1OC (configuration not stated),inactive: 7.12%,
Fc1cccc(-c2cncc(N3CCN(CCN4CCCC4)CC3)n2)c1,inactive: 1.84%,
O=C(O)c1nc(Cl)c(Cl)c(N/N=C/c2ccccc2C(F)(F)F)c1Cl,inactive: -5.78%,
CCN(c1ccc(Cl)cc1)S(=O)(=O)c1nnc(NC(=O)C(C)C)s1,inactive: 4.85%,
COc1cc(NC(=O)CCn2c(=S)oc3ccccc32)cc(OC)c1OC,inactive: 6.52%,
COc1cccc(NC(=S)N(CCN(C)C)C(C)c2ccco2)c1 (configuration not stated),inactive: -3.03%,
Cc1ccccc1/C=C/C(=O)N1CCOCC1,inactive: 10.1%,
Cc1cc(C)nc(NS(=O)(=O)c2ccc(N3C(=O)C4CCCCC4C3=O)cc2)n1 (configuration not stated),inactive: 0.567%,
COc1ccccc1C(=O)N1CCCC(C)(C(=O)NS(=O)(=O)C2CC2)C1 (configuration not stated),inactive: -1.93%,
O=C(COc1cccnc1[N+](=O)[O-])Nc1cccc(Br)c1,inactive: 18.6%,
FC(F)Oc1ccc(NC(=S)NC2CCCCCCC2)cc1,inactive: 26.5%,
N=c1c(C(=O)NCC2CCCO2)cc2c(=O)n3ccccc3nc2n1Cc1ccccc1Cl (configuration not stated),inactive: -17.7%,
Cc1ccc(S(=O)(=O)NC(=NC2CCCCC2)c2ccccc2)cc1,inactive: 5.19%,
COc1ccc(NC(C)=O)cc1S(=O)(=O)NC(Cc1ccccc1)C(=O)NCc1ccccc1C (configuration not stated),inactive: 15.2%,
COc1ccc([N+](=O)[O-])cc1NC(=O)CSc1nc(C)cc(C)n1,inactive: -4.82%,
CC(C)(C)NC(=O)COC(=O)c1cc(Cl)ccc1[N+](=O)[O-],inactive: 24.7%,
CN(C)CCNC(=O)C1CCN(S(=O)(=O)c2ccc3ccccc3c2)CC1,inactive: -2.54%,
O=C(COC(=O)CCc1nc2ccccc2c(=O)[nH]1)NC(=O)NC1CCCC1,inactive: -22%,
COc1ccc(-n2c(SC)nc3sc4c(c3c2=O)CCN(C)C4)cc1,inactive: -7.76%,
CC(C)NC(=O)c1cc(C2CCCCN2S(=O)(=O)c2ccccc2)on1 (configuration not stated),inactive: 5.84%,

SMILES,growth rescue (activation),Potency
CCC(C)NC(=O)Cn1cc(S(=O)(=O)N2CCN(c3ccccc3F)CC2)c2ccccc2c1=O (configuration not stated),inactive: 5.21%,
CCN(CC)S(=O)(=O)c1ccc(NS(=O)(=O)c2ccc(O)c([N+](=O)[O-])c2)cc1,inactive: -5.15%,
OCC1(CCc2ccccc2)CCN(Cc2ccc(OC(F)F)cc2)CC1,inactive: 4.17%,
CCOc1cc(S(=O)(=O)NCc2cccnc2)c(C)cc1C,inactive: 14.1%,
c1ccc2oc(-c3ccc(Nc4nc(N5CCOCC5)nc(N5CCOCC5)n4)cc3)nc2c1,inactive: 5.59%,
Cc1cccc2cc(CN(CCCO)C(=O)Nc3ccc(Cl)cc3)c(=O)[nH]c12,inactive: 25.6%,
COc1ccc(S(=O)(=O)N(C)c2ccc(C(=O)N3CCN(C)CC3)cc2)cc1,inactive: 2.75%,
COC(=O)c1sccc1NC(=O)c1ccccc1[N+](=O)[O-],inactive: 33.9%,
Cc1cccc(NC(=O)CN2CCN(CC(=O)Nc3ccc(-c4ccccc4)cc3)CC2)c1C,inactive: 12.1%,
O=C(Cn1c(=O)c2sccc2n(CC(=O)Nc2ccc(Cl)cc2Cl)c1=O)NCCc1ccccc1,inactive: 0.441%,
COc1ccc(NC(=O)CCC(=O)Nc2cc(OC)c(NC(=O)c3ccco3)cc2OC)c(OC)c1,inactive: 6.19%,
COc1ccc(NC(=O)c2ccc(-n3cnnn3)cc2)c([N+](=O)[O-])c1,inactive: 1.69%,
CCCCCCCCOC(=O)C(NC(=O)CCC(=O)Nc1ccc(S(N)(=O)=O)cc1)C(O)c1ccccc1 (configuration not stated),inactive: 10.1%,
CC(NC(=O)NCc1cccnc1)(C(F)(F)F)C(F)(F)F,inactive: -26.7%,
CCOC(=O)Cc1csc(N/N=C/c2cccc([N+](=O)[O-])c2)n1,inactive: -4.79%,
C/C(=N\NS(=O)(=O)c1ccc(C)cc1)c1ccc(C)o1,inactive: 10.7%,
COc1ccc(C(=O)OCC(=O)Nc2ccc([N+](=O)[O-])cc2OC)c(O)c1,inactive: 10.4%,
N#Cc1ccsc1NC(=O)CCN1CCN(C(c2ccccc2)c2ccccc2)CC1,inactive: -42.4%,
COCCNC(=O)NC(=O)COC(=O)C1(c2ccc(Cl)cc2)CC1,inactive: 3.53%,
CCNC(=O)C1(C)CCCN(C(=O)c2ccc3ccccc3n2)C1 (configuration not stated),inactive: -13.1%,
COc1cc(NC(=O)CN2CCC(Cc3ccccc3)CC2)c(C)cc1[N+](=O)[O-],inactive: -6.56%,
Cc1cc(C(=O)CN2C(=O)C(=O)N(C)C2=O)c(C)n1-c1cccc(S(=O)(=O)N2CCOCC2)c1,inactive: 24.2%,
CCOc1cc(/C=N/Nc2ncc(C)c(=O)[nH]2)ccc1O,inactive: -0.445%,
O=C(CSc1nnnn1Cc1ccccc1)c1ccccc1F,inactive: 23.4%,
COc1cc(C)ccc1N(CCCN1C(=O)c2cccc3cccc(c23)C1=O)C(=O)c1cccs1,inactive: -11.3%,
Cc1ccccc1C(=O)NCCNC(=O)c1ccccn1,inactive: -9.96%,

SMILES,growth rescue (activation),Potency
COc1ccccc1N1C(=O)C2C(C(=O)c3ccccc3)=NN(c3ccc(Br)cc3)C2C1=O (configuration not stated),inactive: -11.5%,
CCNc1oc(COc2ccccc2F)nc1C#N,inactive: 36.1%,
CCn1c(SCC(=O)Nc2ccc(OC)cc2OC)nc2nc3c(cc2c1=O)COC(C)(C)C3,inactive: -2.96%,
Cc1ccc(S(=O)(=O)N(CCC(=O)Nc2ccc(OC(F)(F)F)cc2)c2ccccc2)cc1,inactive: -21.5%,
Cc1nn(C)c(C)c1CN(C(=O)CCc1nnc(Cc2c[nH]c3ccccc23)o1)C(C)C,inactive: 8.68%,
COc1ccccc1-c1cn(C(C)(C)C)nc1C,,active: 11.2 µM
O=C(Nc1ccc(-c2ccc([N+](=O)[O-])cc2)cc1)c1ccccc1F,inactive: 1.42%,
FC(F)C(F)(F)Oc1cccc(Nc2nccn3c(-c4cccc5ccccc45)cnc23)c1,inactive: 3.44%,
COc1ccc(CC(=O)Nc2cccc3ccccc23)cc1OC,inactive: 13.3%,
CCCN(CCC)C(=O)c1ccc2c(c1)N(CC)C(=O)c1ccccc1S2(=O)=O,inactive: 5.8%,
CCC(C)N(C(=O)CSc1nncn1C)C1CCS(=O)(=O)C1 (configuration not stated),inactive: 4.07%,
Cc1ccc(S(=O)(=O)C2(C(=O)N3CCN(c4ccccc4F)CC3)CC2)cc1,inactive: -0.908%,
O=C(CCc1nnc(Cc2c[nH]c3ccccc23)o1)NCC1CC12CCCCC2 (configuration not stated),inactive: 4.77%,
O=S1(=O)N=C(Nc2ccc(N3CCOCC3)c(Cl)c2)c2ccccc21,inactive: -5.29%,
CCN(CC(=O)NCc1ccc(F)cc1)C(=O)c1ccc(C(=O)c2ccccc2)cc1,inactive: 14.2%,
CCOC(=O)c1ccc(N2C(=O)C3CC=C(C)CC3C2=O)cc1 (configuration not stated),inactive: 24.6%,
COC(=O)c1ccccc1NC(=S)N(Cc1ccc2c(c1)OCO2)Cc1cc2ccc(C)cc2[nH]c1=O,inactive: 15.2%,
NC(=O)c1ccc(OCC(=O)N2CCNC2=O)cc1,inactive: 6.51%,
COc1ccccc1NC(=O)CC1CCCC1,inactive: 19%,
Cc1ccc(NC(=O)c2ccc(OC(F)(F)F)cc2)cc1S(=O)(=O)N(C)C,inactive: 20.8%,
CC1CN(C(=O)c2ccc(COc3ccccc3Br)o2)CC(C)O1 (configuration not stated),inactive: 24.5%,
COc1ccc(CSc2nnc(-c3ccncc3)n2C)cc1F,inactive: 12.3%,
CCN(CC)c1ccc(N=Nc2ncn[nH]2)cc1,inactive: -4.42%,
COc1cccc(/C=N/NC(=O)c2cccc(N3CCCC3=O)c2)c1,inactive: 10.3%,
CCCn1c(N)c(C(=O)COC(=O)/C=C/c2ccc(OC(F)F)c(OC)c2)c(=O)[nH]c1=O,inactive: 3.38%,
Cc1cc(C)c(C)c(Oc2ncnc(N)c2[N+](=O)[O-])c1,inactive: 20.7%,

SMILES,growth rescue (activation),Potency
CN(C)C(=O)CCC(=O)N1CCCC(C(=O)c2ccc3c4c(cccc24)CC3)C1 (configuration not stated),inactive: 5.3%,
Cc1ccc(S(=O)(=O)N2CCN(C(=O)c3ccccn3)CC2)cc1,inactive: -9.19%,
CC(C)(C)NC(=O)CN(C(=O)CCC(=O)Nc1nccs1)c1ccc(F)c(Cl)c1,inactive: -3.4%,
CCc1nccn1-c1cc(C(C)(C)C)nc2c(-c3ccc(Cl)cc3)cnn12,inactive: 2.45%,
Nc1nc(N2CCN(Cc3ccccc3)CC2)n[nH]1,inactive: -0.853%,
Cc1ccc(NS(=O)(=O)c2cccc(C(=O)NCCc3c[nH]c4ccccc34)c2)c(C)c1,inactive: -5.95%,
O=C1CCc2ccc(NS(=O)(=O)c3ccc(F)cc3)cc2N1,inactive: 8.26%,
O=C(Nc1nnc(Cc2ccc([N+](=O)[O-])cc2)s1)c1ccc2c(c1)OCO2,inactive: 9.3%,
CSc1ccccc1NC(=O)COc1ccc(Cl)cc1Cl,inactive: -2.8%,
COc1cc(NC(=O)c2ncn[nH]2)cc(OC)c1OC,inactive: 33.3%,
O=C(Nc1ccc(Br)cn1)c1ccc(Br)s1,inactive: 11.4%,
COC(=O)c1cccc(N(CC(=O)NC2CCCC2)C(=O)CCC(=O)Nc2cc(C)on2)c1,inactive: -2.37%,
CCc1ccc(C(=O)Nc2cc(C)ccc2F)s1,inactive: 8.76%,
Cc1ccc(OCCN2CCC2(C)C(=O)NCc2ccc(C(F)(F)F)cc2)cc1 (configuration not stated),inactive: -7.92%,
COc1cccc(-c2csc(N3CCN(CC(=O)NNC(=O)c4ccco4)CC3)n2)c1,inactive: 4.73%,
Cc1cccc(C)c1N/C=C/c1onc(C)c1[N+](=O)[O-],inactive: -21.4%,
Cc1cc(C)cc(OC(=O)CCN2C(=O)C3C4C=CC(C5CC45)C3C2=O)c1 (configuration not stated),inactive: 6.31%,
O=C(c1ccccc1NS(=O)(=O)c1cccc([N+](=O)[O-])c1)N1CCCC1,inactive: 1.12%,
CCN(CC)S(=O)(=O)c1ccc(OC)c(NC(=O)c2cc3c(=O)n4ccccc4nc3s2)c1,inactive: -7.15%,
Cc1cc(C)c2cc(CN(CCO)Cc3nnnn3Cc3ccccc3)c(=O)[nH]c2c1,inactive: 3.43%,
O=C(Nc1ccc2c(c1)OCCO2)c1coc2ccccc2c1=O,inactive: -14.2%,
CNS(=O)(=O)c1cccc(C(=O)OCC(=O)N(Cc2ccccc2)C(C)(C)C)c1,inactive: 6.47%,
Cc1cccc(N(C(=O)Cc2cccs2)C(C(=O)NCc2ccco2)c2ccncc2)c1 (configuration not stated),inactive: -11.3%,
COc1ccc(-n2c(=O)c3c(C)c(C)sc3n(Cc3ccc(F)cc3)c2=O)c(OC)c1,inactive: -13%,

# — PubChem BioAssay AID1347073 (National Center for Advancing Translational Sciences (NCATS), 2019)
